For 167 variants, self-cleavage results are on record in the RNAGym collection of RNA variant scans (doi:10.7554/elife.90254).

The source gives no read counts; variants with many changes may rest on few reads.

To fix the notation:
B1: LINE1-mini (parent)
chain: GGCAGAGCUCAACACAGCGUGGCAAAGUGGCUGUGGCUAGACUGCC

Variants of B1 are the subject of the data set. Nature of the data set: self-cleavage, relative activity (ratio to wild type); higher = more cleavage; in vitro, sequencing; the parent is a self-cleaving ribozyme.
Turning to C10G G22C C42A, the self-cleavage is 0.02. C10A C18A G27C: the self-cleavage was found to be 0.02. Next, C10A G17C U32C: 0.05. On to C10A G22A G30C, for which the self-cleavage came to 0.1.

In the case of C10G A16G G22U A26U, the self-cleavage came out at 0.02. Next, C10A G21U G44U: 0.08; C10G G27U G40C U43A: 0.

C10G A16U U20G C37A: the self-cleavage stood at 0.02.

In the case of C10A A26C C45U C46A, the self-cleavage was found to be 0.01. The value for C10A A25G G33U was 0.03; that for C10A A16C C18U U43A was 0.03.

Turning to C10A G19C U20G G27A C45U, the self-cleavage stood at 0.03.

Take C10G A14G G36C A39G: the self-cleavage is 0.01.

In the case of C10G A16G U38C C42U, the self-cleavage is 0.

For the variant C10A A11G A14C G30A G36A U38G A41G, the self-cleavage was 0. The value for C10G A12C A14G G27A C37G was 0; that for C10A U34G G44U was 0.

Consider C10G C15U U28G C31A U34G A41U, for which the self-cleavage turned out to be 0.

Consider C10A C15U A16C A24G U28C G36U, for which the self-cleavage was found to be 0.02.

Regarding C10G G21U A39C C45U, the self-cleavage was 0.03. Turning to C10G A12C G22C G29A, the self-cleavage amounted to 0.

C10A G19A U28G U34A: the self-cleavage amounted to 0.01. The value for C10A A24G G40A G44C was 0.01; that for C10G G21U G33A G36U U43G was 0; that for C10G G22A U28A G29A was 0.09. Next, C10A G27U U28A G36U: 0.01; C10A A12G G30A: 0.01; C10G G27U G35C A39U: 0. Next, C10A G33U A41U: 0.06; C10A A14G G21A G22U: 0.04; C10A U28A C42G: 0.02. Turning to C10A U20A G33C G36A G40C, the self-cleavage turned out to be 0.01. As to C10A A12G A25U G27A, the self-cleavage was determined as 0.

As for C10A A24G U34A A41C, the self-cleavage was found to be 0.01. With C10G A16C G21A G33C G40A, the self-cleavage was found to be 0.01. The value for U9G U34G A39U was 0.02. C10A G33A C45U: the self-cleavage stood at 0.03. The value for C10A G21U U34A was 0.02; that for C10A G33C G44U was 0.02; that for C10A C13G C31A G44C was 0.02. As for C10A A12G A16G G29U, the self-cleavage came out at 0. The value for U9G U20G G21A was 0.03; that for U9G U20G G21U was 0.04. Next, C10G C23A A26C C31A: 0.04. Next, C10A G19C A26C G44A: 0.01. Regarding C10A A11C G30C A39U, the self-cleavage was 0.01. The value for C10A G19U G40C was 0.04. On to C10G A12U C18A U28C C37U, for which the self-cleavage was determined as 0.01. The value for C10A A11G G44U was 0. Next, C10G G19C A24G G30U: 0.01; C10A C13G G40C: 0.01. Next, C10A G30U C45G: 0.08. Consider C10G A14U G19C A26C, for which the self-cleavage stood at 0.04. As to C10A A14G A16G C18A A24U G30U, the self-cleavage is 0.02. Next, C10A C13A A39U C46A: 0.01; C10A A11G G27U: 0.04. The value for C10A G21A C23G A24C was 0.02. Take C10A C13U G35U: the self-cleavage turned out to be 0.02. The value for C10A A26G G40U was 0; that for C10G C31G G33U was 0.

On to C10A C13A A26U C45U, for which the self-cleavage was 0. The value for C10G C15U G17A C18A A26U U28G U32A was 0.01. C10A C15G A39C: the self-cleavage was found to be 0.02. The value for C10G C42A C45A was 0.01. Turning to C10A A14G C31A U32G A41U, the self-cleavage is 0.01. The value for C10A A14G C23G was 0.02. The value for C10A A11G G29C was 0.02; that for C10A U20A A24G was 0.01. Next, C10G G19C G27A U32G U34A C46U: 0.01. As to C10A A16U G19A U32A, the self-cleavage worked out at 0.02. On to C10A A12C U43C, for which the self-cleavage amounted to 0.01. The value for C10G G19A G33U was 0.01; that for C10A G17A G22C A25C was 0.02. On to C10A A26C G29U U34A G35A, for which the self-cleavage worked out at 0.02.

In the case of C10A A16U G22U G30U, the self-cleavage came out at 0.02. As to C10A G22A C23A G29U C46A, the self-cleavage amounted to 0.01. Next, C10G A16G G30C: 0.06; C10A G40U A41U: 0.01; C10A U38G C42G: 0.02. Turning to C10G A11G G22A C31A C45G, the self-cleavage is 0.01. Next, C10A C18A G33U: 0.05; C10A C31G U32G G36U: 0.04. Next, C10A U38A A41C C45U: 0.04. As to C10G C13G G21U, the self-cleavage came out at 0.03. The value for C10A C13U G33U C42G was 0.02; that for C10A C18U C23G G33C C42A was 0. C10G C15G U34C: the self-cleavage worked out at 0.02. The value for C10A C13A U43C was 0.02; that for C10A G30U U38A was 0.06; that for C10A A12U G19A was 0.01. As for C10A G19A G21A C23U U32A A41C, the self-cleavage was 0.

As to C10G G27A C31A G33C, the self-cleavage was 0.02. As to C10G C13U C15U U20G G21C G29U, the self-cleavage stood at 0.01. Next, C10A U20C G29C U34C: 0.02; C10G A11G U34C C45U: 0.02; C10A G29U C46U: 0.07. C10A G29U C46G: the self-cleavage came out at 0.14.

Regarding C10A C18G G36A C42A, the self-cleavage turned out to be 0.02. Regarding C10A G36C C42A, the self-cleavage was found to be 0. With C10A G40A C45G, the self-cleavage is 0.02. Next, C10G G21U G40C U43C C45U: 0; C10A G17U A26C A41G: 0; C10A C37U C46A: 0.01. Regarding C10A G21C U34C, the self-cleavage was found to be 0.28. Consider C10A G17C G22A G40A U43A, for which the self-cleavage worked out at 0.03. The value for C10G C15A U20C A39G was 0.01; that for C10A C15A C18G A25C C31G C42G was 0.01; that for C10A U34C C37G was 0.04. Consider C10G A11U G30U U34G G44A, for which the self-cleavage came out at 0.02. C10A A11U A14U: the self-cleavage came out at 0.

As for C10A U20C G40C C46G, the self-cleavage was found to be 0. Next, C10G G22U G27A: 0.08; C10G G21C G35C G36A: 0.01; C10A A16G U28C G33C A39G: 0.01.

With C10A C18A G36C, the self-cleavage came out at 0.01. The value for C10A G19U C23A G30U G35C was 0.01.

As to C10A A39U A41G, the self-cleavage was 0.02. Turning to C10A U28C C42U, the self-cleavage was determined as 0.03. For the variant C10A C13U G30A, the self-cleavage is 0.04. For the variant C10A C13U G30U, the self-cleavage came out at 0.06.

With C10A C13G G21A A24C A41U, the self-cleavage was found to be 0.01. Next, C10A C31A C37U: 0.01. Next, C10A G22C C23A G36U: 0.02; C10A G19U G35A C45A: 0.04. Turning to C10A C18A C42U, the self-cleavage was 0.

On to C10A A24C U32A C46G, for which the self-cleavage came out at 0.01. The value for C10A C15U U38C A41C was 0.01. Next, C10A C18A G30A U34G: 0.02; C10G C23G G35C: 0.02; C10A G29U G44U C46U: 0.04. For the variant C10A A12G G29C C37U G40U, the self-cleavage was found to be 0.01. For C10A A12U G22C G36A U38A, the self-cleavage amounted to 0.

Regarding C10A G17C A25U, the self-cleavage amounted to 0.03. The value for C10A C15A G29C A41C was 0; that for C10A G30A C45G C46U was 0.05; that for C10G C18A U20C was 0.03. Turning to C10G G17U G40A, the self-cleavage was found to be 0.04. On to C10A U28C U34C, for which the self-cleavage was 0.07. Regarding C10A A14G G21A, the self-cleavage amounted to 0.04.

On to C10A U28C U32A G36U, for which the self-cleavage came out at 0. In the case of U9G U20G C37U C45U, the self-cleavage worked out at 0.19. Consider C10A U32A G33U U34C C42G, for which the self-cleavage turned out to be 0.02. As to C10G A14U U20A C23U G36U, the self-cleavage worked out at 0. Turning to C10A C23U G27U, the self-cleavage came out at 0.02. Turning to C10G C13A G29U C45A, the self-cleavage is 0.01. Next, C10A C13A U34C: 0.02; C10A C13G A26U G27A G29U: 0. The value for C10A A14U G17U G21C was 0.03. Next, C10G A11G C42U: 0.08. Turning to C10A C23G U43A, the self-cleavage was found to be 0.01.

Take C10G G19A G35A: the self-cleavage was 0.06. With C10G C15U G35A, the self-cleavage was 0.04. For C10A U34A A41U, the self-cleavage came to 0.02.

For C10G A25C C42A G44A, the self-cleavage stood at 0.02. Next, C10A G27U C31U: 0.33; C10G G17U U28A G33U: 0.01; C10A A14G G30C: 0. For the variant C10A G22U C23G G33U, the self-cleavage was found to be 0.02.

With C10A G30A U38G, the self-cleavage is 0.15. Next, C10A G19U C31G: 0. Next, C10A A16C G30U: 0.01; C10G A25U G40A: 0.06; C10A G19C G30U U43G C45U: 0.

Consider C10A G30U G36C A39U, for which the self-cleavage stood at 0.04.

Regarding U9G U32G A41G, the self-cleavage stood at 0.05.

As to C10G G22U C46U, the self-cleavage amounted to 0.09.

With C10A C23U A24U G33C, the self-cleavage worked out at 0.01.
